B1: PhoQ; a variant is named by its letters at X, in order, P23837 (parent)
chain: MKKLLRLFFPLSLRVRFLLATAAVVLVLSLAYGMVALIGYSVSFDKTTFRLLRGESNLFYTLAKWENNKLHVELPENIDKQSPTMTLIYDENGQLLWAQRDVPWLMKMIQPDWLKSNGFHEIEADVNDTSLLLSGDHSIQQQLQEVREDDDDAEMTHSVAVNVYPATSRMPKLTIVVVDTIPVELKSSYMVWSWFIYVLSANLLLVIPLLWVAAWWSLRPIEALAKEVRELEEHNRELLNPATTRELTSLVRNLNRLLKSERERYDKYRTTLTDLTHSLKTPLXXLQXXLRSLRSEKMSVSDAEPVMLEQISRISQQIGYYLHRASMRGGTLLSRELHPVAPLLDNLTSALNKVYQRKGVNISLDISPEISFVGEQNDFVEVMGNVLDNACKYCLEFVEISARQTDEHLYIVVEDDGPGIPLSKREVIFDRGQRVDTLRPGQGVGLAVAREITEQYEGKIVAGESMLGGARMEVIFGRQHSAPKDE

The list shows a part of the results.

In the assay the parent is B1. The experiment in a line: enrichment ratio after two sorts for PhoP signalling (ratio (wild type AVST 3.29)); higher = more functional. The settings on record: with PhoP (E. coli).
In the case of AEKY, the enrichment ratio is ≤ 0.25. Turning to HDDF, the enrichment ratio is ≤ 0.25. The same measure for TVGM: 10.4; for IVCQ: ≤ 0.25. The same measure for WQFT: ≤ 0.25.

For TVVS, the enrichment ratio was ≤ 0.25.

For WKRS, the enrichment ratio is ≤ 0.25. In the case of STVH it was 8.82; in that of LNIS, ≤ 0.25.

DNNG: the enrichment ratio was ≤ 0.25. Take PNYI: the enrichment ratio was ≤ 0.25. The same measure for MSAV: 8.81. The same measure for SAFS: 0.465.

Take LFHR: the enrichment ratio was ≤ 0.25. In the case of RVNS, the enrichment ratio was ≤ 0.25. Regarding MQQM, the enrichment ratio is ≤ 0.25.

In the case of ARYH, the enrichment ratio is ≤ 0.25. In the case of CIQI it was ≤ 0.25; in that of SWSS, ≤ 0.25; in that of GRFH, ≤ 0.25. Regarding IGQS, the enrichment ratio was ≤ 0.25. As for HHNF, the enrichment ratio is ≤ 0.25. In the case of QYST it was ≤ 0.25; in that of ADLV, 8.2.

For NELN, the enrichment ratio was ≤ 0.25. For the variant AVHF, the enrichment ratio is ≤ 0.25.

For the variant ADRI, the enrichment ratio is ≤ 0.25. For the variant NFIY, the enrichment ratio is ≤ 0.25.

In the case of VAQT, the enrichment ratio is ≤ 0.25. In the case of LFTP it was ≤ 0.25. In the case of RNCM it was ≤ 0.25. The same measure for AREP: ≤ 0.25. Turning to KGYI, the enrichment ratio was ≤ 0.25. In the case of FYEE it was ≤ 0.25; in that of TPDQ, ≤ 0.25. The same measure for LFAP: ≤ 0.25; for GTRQ: ≤ 0.25; for WKYF: ≤ 0.25.

Regarding NYNE, the enrichment ratio is ≤ 0.25. In the case of NQLL it was ≤ 0.25; in that of YFTF, ≤ 0.25; in that of WRVV, ≤ 0.25.

Regarding HDHL, the enrichment ratio was ≤ 0.25. For the variant GIHA, the enrichment ratio was ≤ 0.25.

As for HPND, the enrichment ratio was ≤ 0.25. In the case of HADS it was ≤ 0.25; in that of HGHK, ≤ 0.25. DSVM: the enrichment ratio is ≤ 0.25. For the variant DGSK, the enrichment ratio is ≤ 0.25. Regarding YQLH, the enrichment ratio was 0.516.

For VEWH, the enrichment ratio was 13.7. For LGKL, the enrichment ratio is ≤ 0.25.

Take LSHH: the enrichment ratio was ≤ 0.25.

Consider IAAV, for which the enrichment ratio was ≤ 0.25. With TPIE, the enrichment ratio was ≤ 0.25. For VLSW, the enrichment ratio is ≤ 0.25.

In the case of GCSL, the enrichment ratio worked out at 3.5. The same measure for FLKG: 0.285; for LTER: ≤ 0.25; for YTLR: ≤ 0.25. Consider VQYG, for which the enrichment ratio is ≤ 0.25. On to MTQF, for which the enrichment ratio is ≤ 0.25. The same measure for MGKL: ≤ 0.25. In the case of WCTP it was ≤ 0.25; in that of NHVI, ≤ 0.25.

With VQHW, the enrichment ratio is ≤ 0.25. Take MECN: the enrichment ratio was 12.6.

As for DMDP, the enrichment ratio was ≤ 0.25. As for PHPY, the enrichment ratio is ≤ 0.25. In the case of LFPK it was ≤ 0.25. The same measure for PCML: ≤ 0.25; for RINY: ≤ 0.25; for AFHL: ≤ 0.25. In the case of TIPM it was ≤ 0.25.

Take RSLR: the enrichment ratio was ≤ 0.25. In the case of FVHV it was 12.9.

Turning to SFKE, the enrichment ratio is ≤ 0.25. In the case of MPEM it was ≤ 0.25; in that of YPVG, ≤ 0.25; in that of QSPM, ≤ 0.25. Regarding AMVE, the enrichment ratio was ≤ 0.25.

Turning to WTGN, the enrichment ratio is ≤ 0.25. In the case of ASYE it was 0.824; in that of LHYY, ≤ 0.25; in that of HRGG, ≤ 0.25. Turning to TIDD, the enrichment ratio is ≤ 0.25. For WDVI, the enrichment ratio is ≤ 0.25. In the case of NNRH it was ≤ 0.25; in that of PTNY, ≤ 0.25; in that of ESET, ≤ 0.25. With FRSY, the enrichment ratio is ≤ 0.25. In the case of EGWP it was ≤ 0.25; in that of NFTQ, ≤ 0.25; in that of VGCP, ≤ 0.25.

As to PPGS, the enrichment ratio is ≤ 0.25.

As for TICH, the enrichment ratio turned out to be 0.547. Consider STNR, for which the enrichment ratio stood at 0.43. GAPM: the enrichment ratio is ≤ 0.25. In the case of QECG it was 23; in that of MCAQ, ≤ 0.25.

In the case of KMTQ, the enrichment ratio is ≤ 0.25.

For HDVQ, the enrichment ratio was ≤ 0.25.

For GVIK, the enrichment ratio is ≤ 0.25.

Consider LKFA, for which the enrichment ratio is ≤ 0.25. On to MQAQ, for which the enrichment ratio was ≤ 0.25. Regarding QACR, the enrichment ratio was ≤ 0.25. The same measure for SPRL: ≤ 0.25; for ELVS: ≤ 0.25. In the case of KPLM, the enrichment ratio was ≤ 0.25. For the variant RGAK, the enrichment ratio is ≤ 0.25. With DAYC, the enrichment ratio was ≤ 0.25. Consider LYVC, for which the enrichment ratio was ≤ 0.25. In the case of DKYF it was ≤ 0.25; in that of KEFH, ≤ 0.25. The same measure for PLDM: ≤ 0.25.

Regarding QNGA, the enrichment ratio is ≤ 0.25. PLNI: the enrichment ratio is ≤ 0.25.

On to FLAH, for which the enrichment ratio is ≤ 0.25. RFKM: the enrichment ratio is ≤ 0.25.

In the case of NYSK, the enrichment ratio was ≤ 0.25. In the case of KIGL it was ≤ 0.25. Regarding LLME, the enrichment ratio is ≤ 0.25. Take FPGE: the enrichment ratio was ≤ 0.25. In the case of TGQD, the enrichment ratio was ≤ 0.25. The same measure for KFEG: ≤ 0.25. The same measure for KHHP: ≤ 0.25; for NCNF: ≤ 0.25. The same measure for KCNQ: ≤ 0.25. With NRFA, the enrichment ratio is ≤ 0.25. In the case of YILN it was ≤ 0.25; in that of GRAE, ≤ 0.25.

Regarding VDQL, the enrichment ratio was ≤ 0.25. In the case of MEAI it was 8.36; in that of VVCD, ≤ 0.25. The same measure for KEVN: ≤ 0.25; for KYGT: ≤ 0.25; for IYPL: ≤ 0.25.

For IQKM, the enrichment ratio was ≤ 0.25.

For the variant RFFD, the enrichment ratio is ≤ 0.25.

With LQQM, the enrichment ratio was ≤ 0.25. The same measure for DTHG: ≤ 0.25. The same measure for LMSW: ≤ 0.25; for EDDY: ≤ 0.25; for SDDN: ≤ 0.25.

Regarding LRRQ, the enrichment ratio was ≤ 0.25.

As for LIIW, the enrichment ratio is ≤ 0.25.

As to LEGG, the enrichment ratio is ≤ 0.25. Take HYKV: the enrichment ratio is ≤ 0.25. For AQAN, the enrichment ratio amounted to 18.7. RASR: the enrichment ratio is ≤ 0.25. In the case of EVER, the enrichment ratio was ≤ 0.25. As to HWER, the enrichment ratio was ≤ 0.25. In the case of IMGH it was ≤ 0.25.
